This is an account of results in the RNAGym collection of RNA variant scans (doi:10.1093/nar/gkz1192).

To fix the notation:
B1: CPEB3 Ribozyme (parent)
chain: UAACAGGGGGCCACAGCAGAAGCGUUCACGUCGCAGCCCCUGUCAGAUUCUGGUGAAUCUGCGAAUUCUGCUGUAUAUCUC

Read counts are not given, so values of variants with three or more changes are uncertain.

Variants of B1 are the subject of the series. Description: self-cleavage, relative activity (ratio to wild type); higher = more cleavage; in vitro, sequencing. In short, it runs like this:
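After error-prone PCR and barcoding, CPEB3 ribozyme mutant libraries were transcribed with T7 RNA polymerase at 37°C for 5 hours, then given 15 min with DNase I before an EDTA stop, and they cleaved during both steps. Reverse transcription with template switching preceded Illumina sequencing. Relative activity divides a variant's cleaved/total read fraction by the unmutated ribozyme's. At least 5 reads were required per variant, and three batches were averaged.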
On to U41C A56U U66C U80C, for which the self-cleavage was 0.28. Consider U41C A47C U51C A65U, for which the self-cleavage is 0.08. For the variant C40A U51G A64G, the self-cleavage is 0.24. To U41C G46U G73A belongs 1.13; to U41A U43A A45G, 0.09; to U41C U51A U54A A56U A64G U69C, 0.72. To U41A U43G U69C belongs 0.14; to U41A G46C A64G, 0.35; to U41C A56G U60A U74A, 0.18. Turning to U41C A45G U48C U49G C50G C59A U60A, the self-cleavage was found to be 0.12.

As to U41C A57G U67G, the self-cleavage was 0.31. As to U41C A47U U51C, the self-cleavage was found to be 0.33. As to U41A U43C U51C U60A U67C A77G, the self-cleavage was found to be 0.06. In the case of U41C G55C U60C, the self-cleavage was found to be 0.24. To C40A U54C U72A belongs 0.11; to U41A A64G U69C U78C, 0.18; to U41A A47G U54C, 0.12.

Regarding C40A A56G A65G U80G, the self-cleavage was 0.33. Regarding U41A A45G U51A A57G U67C, the self-cleavage was determined as 0.15. To C40U U74C U78C belongs 1.06; to U41C A65G A77G, 0.58. Take U41C U49C U66C U67C: the self-cleavage is 0.12. To C40U A45U A64U U78C belongs 0.11.

Consider U41A A57G U60A, for which the self-cleavage was 0.07.

For the variant U41C U51A A64G A65G, the self-cleavage was determined as 0.08. Take U41C U43A U74A: the self-cleavage is 0.92. With U41A C44U U51G, the self-cleavage stood at 0.19. To U41C A57C U60A C81U belongs 0.16; to U41A U51A U72C, 0.26. To U41C A47G U51C C79U U80C belongs 1.13.

U41C C62G U67C: the self-cleavage came to 0.23.

As for U41A A56G U72A, the self-cleavage was found to be 0.05.

With U41A U60C U74C, the self-cleavage came to 0.17. To C40U U48C U54G A77C belongs 0.17. To U41C G46A A56G A57G belongs 0.16; to U41A A56U U74A, 0.44. To U41A A45G U51C U76C belongs 0.08. As to C40U U43C U49C A65G U69A, the self-cleavage was 0.14. To U41A A64U U67C belongs 0.35. To C40A U41A U67C belongs 0.17; to U41C U54C U72G, 1.1. To U41A U74G A75U U80C belongs 0.44; to U41C A57U U78C, 0.81; to C40A U51C G52A U54C U60C, 0.13.

For U41A A57G U74C, the self-cleavage was found to be 0.13. To U41C A47U U60A U78A belongs 0.17. For the variant U41A G55A G63A U67A, the self-cleavage amounted to 0.1. With U41C C62A U78C, the self-cleavage came to 0.15.

As to U41C U60C A75U, the self-cleavage amounted to 0.65. For the variant U41A A47G U60C A65G, the self-cleavage came out at 0.1. To U41A A75G A77G belongs 0.04; to U41A U49C U72C, 0.26; to C40A A57U C79G, 0.04. To U41A A56U A64G belongs 0.08; to U41C A45U A57C, 0.08.

On to C40A U51C U72A, for which the self-cleavage came to 0.11.

Take U41A U67A U78A: the self-cleavage turned out to be 0.35. For the variant U41A A56C U67C A75G C81A, the self-cleavage worked out at 0.11. For U41A U74A A75G, the self-cleavage worked out at 0.31.

As for U41C U43C U51A A65C U78C, the self-cleavage is 0.07.

Regarding U41A G53C A64G A65G, the self-cleavage turned out to be 0.16. For U41A A47U U67A, the self-cleavage stood at 0.04. To U41C A57G U67C A77U belongs 0.3; to U41A U51A U60C, 0.2.

U41C A64U A75U: the self-cleavage amounted to 0.54.

With U41C U49A U58A, the self-cleavage turned out to be 0.34.

As to C40A U43C A64U, the self-cleavage worked out at 0.13. In the case of U41C A45G U69A U80A, the self-cleavage was 0.82.

For U41A U66C U78A, the self-cleavage was determined as 0.09.

For U41A C44A U60A A77U, the self-cleavage amounted to 0.19.

As for C40U A56G U67C, the self-cleavage was 0.11. Consider C40A U48C A64G, for which the self-cleavage turned out to be 0.13. U41C C50A A56G A64C C68U: the self-cleavage worked out at 0.07. To U41C C50G A56G belongs 0.67; to U41C A56G U60C U80C, 0.49; to U41C A57G U69C, 0.49. Regarding U41C U48A U78C, the self-cleavage stood at 0.52. To U41A A65G U78C belongs 0.08. With C40U U67A U72C, the self-cleavage was 0.28. For C40U U43A U48C, the self-cleavage was 0.27.

On to U41C A56U A64G U80C, for which the self-cleavage was 0.77. As for U41A U54C G61A U80A, the self-cleavage came to 0.16. To C40U U54G A64G belongs 0.26. To C40U U48C A56G belongs 0.29.

Turning to U41C A47G U60A, the self-cleavage came out at 0.44.

In the case of U41C A56G C81A, the self-cleavage is 1.17. To C40U U67C U72C belongs 0.09; to C40A U67A U80C, 0.13; to U41A A65G A77G, 0.53. As for U41A U43C U48C, the self-cleavage worked out at 0.26. In the case of U41C U51A U66C U78C, the self-cleavage stood at 0.52. To U41C A56U A57G belongs 0.3.

For C40U U58C U69C U72C, the self-cleavage amounted to 0.35.

As for U41A U67C U69A U72C U80A, the self-cleavage stood at 0.05. To U41C U60C U66C U78C belongs 0.18; to U41C A45G A56G, 0.54; to C40U G42A U78G, 0.43. As for C40A U43C U51C, the self-cleavage was determined as 0.14. As to U41C A77G U80C, the self-cleavage came to 1.1. To C40A A56C U60C belongs 0.08; to U41C U43C U67C, 0.14. To U41A A45U U58C belongs 0.1; to U41C A47G G53A U69A, 0.72; to C40U A47G A56U, 0.3. U41C A45C U60C U69C: the self-cleavage stood at 0.07. To U41C U43C U51A belongs 0.47; to U41A U51C A64U U69A, 0.09; to U41A G46A C50U A56U U60C U72A U76A, 0.05. For the variant C40U A65G U67C, the self-cleavage was 0.15. To U41C A56G A77G belongs 0.87. To U41A A47G A56G belongs 0.23; to U41C U60C A64G U80C, 0.46; to C40G A45U U67C, 0.15. In the case of U41C A45U U54C A64U, the self-cleavage came to 0.11.

U41C U51C A57G: the self-cleavage came to 0.88.

Consider U41A A45G U51G A56G U66C U78C, for which the self-cleavage came out at 0.11. To U41A G52A U80G belongs 0.33; to U41C G61A A77U, 0.62.

Take U41C C59A U67C U72G U78A: the self-cleavage turned out to be 0.08. To U41C A56U C68A belongs 0.36. To U41C U43C A77U belongs 0.36; to U41A A45C A75U, 0.19; to U41A U54A U80C, 0.34. Turning to U41C U43C U66C, the self-cleavage stood at 0.28. Regarding C40U U41C U43C A56U U58C U78C, the self-cleavage was found to be 0.13.

For U41A A47G U51C A57U U60G, the self-cleavage is 0.1. For C40G U41A G63U U72C U80C, the self-cleavage came out at 0.1. To U41A A45G U51A belongs 0.18. Turning to C40A U43A U78G, the self-cleavage stood at 0.15. For U41A A45U A64G U69A U78C, the self-cleavage came out at 0.17. To U41C A47G U58C U76A A77C belongs 0.29. To U41C U43C U51C A57G U67C U74A belongs 0.05. To U41C C62A A64G A65G G73A belongs 0.12. Turning to U41C A56G U80A, the self-cleavage was 1.13. To C40U U49C G52C A64U belongs 0.1; to C40A U41C U48A U72C C81A, 0.12. For the variant U41C U43A U51A U69C, the self-cleavage amounted to 0.88.

U41C A45U G61U A64C U76C A77C: the self-cleavage came to 0.25. To U41A U43C G52A belongs 0.09. To U41C U60A A75U belongs 0.62. To U41A U49C A64G U76C belongs 0.13. In the case of U41A U51A U60A A75U, the self-cleavage is 0.34. To C40U A45U A57G C68A belongs 0.25; to U41C C50G U54C, 0.87. U41A U49C A56G A64G: the self-cleavage turned out to be 0.11. Turning to C40U U48C A56U U76C, the self-cleavage came to 0.14. To U41A A47G G55A belongs 0.07; to C40U G46U U78C, 0.23; to U41C A65G U72A, 0.66.

C40G A45G U60A: the self-cleavage came out at 0.24. U41C U54C U66C: the self-cleavage turned out to be 0.42. Take C40U A45C A77G U78C: the self-cleavage came out at 0.13. To U41C A47U A64U U78C belongs 0.17; to U41C U43C U67A G73C U74A, 0.09. To U41C U54C U80C belongs 0.98; to U41C A57U A75U, 0.82. To U41C U54C A57G A64G belongs 0.46; to U41A A56G U80C, 0.32; to U41C A45G U66A, 0.64.

U41A U49A U51A U72A: the self-cleavage was found to be 0.16. With U41C U51G G53A, the self-cleavage turned out to be 1.19. Take U41C C44U G46A: the self-cleavage stood at 0.21. To U41C G46U U66C U80C belongs 0.1. To C40A U51C U69C belongs 0.21. As for U41C G63A C68A, the self-cleavage came out at 0.36. To U41A A57G U72C belongs 0.22. Take U41A U60A U66C: the self-cleavage was 0.24.
